The structures appear in SMILES notation. The campaign covered roughly 52,000 compounds. About 4,300 (8.3%) were called active. Cut-off read from the data, not from the text of the source: active = survival mostly below about 52% (no sharp cut-off); inactive = mostly above about 56%. The list shows a part of the results.

This experiment concerns DeltatarO mutant. The experiment is described as follows: S. aureus survival, RN4220 and DeltatarO strains – OD600, teichoic acid synthesis inhibitors, primary screen (AID 463173). The note with it: S. aureus RN4220 wild type/DeltatarO growth, OD600, 18 h, stronger effect = lower value, screened at 18.75 µg/mL (by protocol).
As for `Cc1nc2c(-c3ccccc3)c(C)nn2c(C)c1CCC(=O)Nc1ccccc1F`, the survival was inactive: 66%.
In the case of `COc1ccccc1N1CCN(C(=O)CCn2nc(C)c(S(=O)(=O)N3CCCC3)c2C)CC1`, the survival was inactive: 77%.
Regarding `Cc1ccc(NC(=O)CSc2nc3ccc(NC(=O)COc4ccc(C)cc4)cc3s2)cc1`, the survival was inactive: 83%.
Next, `O=C(Nc1nnc(C2CC(=O)N(c3ccc(Cl)cc3)C2)s1)c1ccco1` (configuration not stated): inactive: 84%; `Cc1ccc(SCc2nc(-c3ccc(C(=O)Nc4cc(C)ccc4C)cc3)oc2C)cc1`: inactive: 109%; `O=C(Nc1ccc2[nH]c(=O)c(=O)[nH]c2c1)c1cccc(F)c1`: inactive: 131%.
As for `COc1ccc2[nH]c(=O)c(CN(Cc3ccc(C)cc3)C(C)=O)cc2c1`, the survival was inactive: 107%.
Next, `CCc1cccc(NC(=O)CN(C)S(=O)(=O)c2ccc3c(c2)n(C)c(=O)c(=O)n3C)c1`: inactive: 86%; `CCOc1cc(C(=O)Nc2ccc3nc(N4CCN(C)CC4)cc(C)c3c2)cc(OCC)c1OCC`: inactive: 137%.
Next, `CC(=O)c1ccc(NS(=O)(=O)c2ccc3[nH]c(=O)[nH]c3c2)cc1`: inactive: 101%.
Take `COC(=O)c1ccc(C=Nc2ccc3oc(-c4ccc(N(C)C)cc4)nc3c2)cc1`: the survival was inactive: 85%.
In the case of `COc1ccc(-n2c(SCC(=O)Nc3ccc4c(c3)OCO4)nc3c([nH]c4ccccc43)c2=O)cc1`, the survival is inactive: 91%.
As to `Cc1nc(-c2ccccc2)sc1C(N)=O`, the survival was inactive: 68%.
For `Cc1cc(C)cc(NC(=O)C2CCN(c3nnc(-n4c(C)ccc4C)s3)CC2)c1`, the survival was inactive: 92%.
Next, `CCOc1ccc2nc(Cl)c(C3CC(c4ccccc4)=NN3C(=O)CCC(=O)O)cc2c1` (configuration not stated): inactive: 51%.
On to `CCOc1ccc(NC(=O)N2CCC(n3c(C)nc4cccnc43)CC2)cc1`, for which the survival is inactive: 94%.
Turning to `CCOc1ccc(C(=O)NCC(c2ccc3c(c2)OCO3)N2CCN(C)CC2)cc1` (configuration not stated), the survival was inactive: 78%.
Under `CCc1cc(=O)oc2c(C)c(OCC(=O)Nc3ccc(S(=O)(=O)N(CC)CC)cc3)ccc12` stands inactive: 57%; under `CCOc1ccc(S(=O)(=O)N(CC(=O)Nc2ccc(OC)c(Cl)c2)c2ccccc2)cc1`, inactive: 75%.
With `CNC(=O)C1CCN(S(=O)(=O)c2ccccc2)CC1`, the survival is inactive: 96%.
For the compound `Cc1ccc(-c2nnc(Nc3ccc(O)cc3)c3ccccc23)cc1S(=O)(=O)NC(C)(C)CO`, the survival is inactive: 254%.
As to `Cc1nn2c(C)c(C(=O)NCc3cccc(Br)c3)cnc2c1-c1ccccc1`, the survival was inactive: 66%.
For the compound `O=C(CN1C(=O)c2ccccc2Sc2ncccc21)Nc1cccc(C(F)(F)F)c1`, the survival was inactive: 88%.
Consider `COc1ccc(Cl)cc1NC(=O)c1noc2c1CCc1ccccc1-2`, for which the survival is inactive: 71%.
Under `COc1cccc(CNC(=O)C2=C(C)C(=O)OC23CCCCCC3)c1` stands inactive: 87%; under `Cc1cccc(N2CCN(C(=O)CCNS(=O)(=O)c3ccc4c(c3)CCN4C(=O)C3CC3)CC2)c1C`, inactive: 73%; under `COc1ccc2nc(NC(=O)c3nc(S(=O)(=O)Cc4ccc(C)cc4)ncc3Cl)sc2c1`, inactive: 82%.
For the compound `COc1ccc(Nc2cc(C)c3cc(NC(=O)COc4cccc(C)c4)ccc3n2)cc1`, the survival is inactive: 102%.
With `Cc1cc(C)c(Cn2cnc3nc4c(cc3c2=O)CCCC4)c(C)c1`, the survival is inactive: 96%.
Next, `COc1cc(-c2nc(-c3ccccc3)c(-c3ccc(Br)cc3)[nH]2)cc(OC)c1O`: active: 0%.
Regarding `CCCCN(CC)C(=O)CSc1nc2ccccc2c(=O)n1Cc1ccco1`, the survival was inactive: 82%.
Consider `CC1CN(C(=O)N2CCC(C(=O)NCc3cccs3)CC2)c2ccccc2O1` (configuration not stated), for which the survival is inactive: 66%.
In the case of `CCC1CCCCN1CCCNC(=O)c1c(O)nc2cc(C)ccn2c1=O` (configuration not stated), the survival was inactive: 80%.
As to `COC(=O)c1cc2sc(Cl)cc2n1Cc1nc(-c2ccccc2C)oc1C`, the survival is inactive: 78%.
`COc1ccc(NC(=O)C2CCN(c3ccc(Sc4ccc(C)cc4)nn3)CC2)cc1`: the survival is inactive: 74%.
Take `COc1cccc(CNC(=O)Cn2c(=O)nc(-c3ccccc3F)c3cc(Cl)ccc32)c1`: the survival is inactive: 87%.
For the compound `CC1CCN(S(=O)(=O)c2ccc3c(c2)N(CC(=O)NC(C)(C)C)C(=O)CS3)CC1`, the survival was inactive: 117%.
Under `COc1ccc(Nc2oc(/C=C/c3cc(OC)c(OC)c(OC)c3)nc2C#N)cc1` stands inactive: 50%.
Turning to `Cc1ccc(Cl)cc1N1CCN(C(=O)COc2cc(=O)n(C)c3ccccc23)CC1`, the survival was inactive: 70%.
Take `O=C(NC1CCCCC1)c1ccco1`: the survival is inactive: 89%.
Turning to `COc1ccc(Nc2nc3c(S(=O)(=O)c4ccc(C)cc4)nnn3c3ccsc23)cc1Cl`, the survival was inactive: 44%.
Under `CC(=O)N1CCc2c(sc3c2c(=O)n(Cc2ccccc2)c(=O)n3Cc2ccccc2Cl)C1` stands inactive: 84%.
Next, `COc1ccc(-c2nc3c4ccccc4n(CC(=O)N4CCN(c5ccccc5F)CC4)c(=O)n3n2)cc1`: inactive: 74%; `O=C(Cn1nnc2ccccc21)OCC(=O)c1ccc(Cl)cc1`: inactive: 77%.
On to `CCc1ccc(NC(=O)CCCc2nnc3n(C(C)CC)c(=O)c4sccc4n23)cc1` (configuration not stated), for which the survival was inactive: 94%.
In the case of `Cc1ccc(NC(=O)CSc2nnc(NC(=O)NC3CCCCC3)s2)cc1`, the survival was inactive: 80%.
Regarding `COc1ccccc1C(=O)Nc1ccc(S(=O)(=O)Nc2nc(C)cc(C)n2)cc1`, the survival was inactive: 61%.
For the compound `O=C(Nc1ccc2c(c1)CCC2)C1CCN(c2ccc(S(=O)(=O)N3CCCC3)cc2)CC1`, the survival is inactive: 103%.
Next, `Cc1oc2ncnc(N3CCCCC3)c2c1C(=O)N1CCN(c2ccc(Cl)cc2)CC1`: inactive: 60%.
Turning to `CCOC(=O)c1ccccc1NC(=O)CSc1cn(CC(=O)N2CCCCCC2)c2ccccc12`, the survival is inactive: 77%.
Next, `COc1ccc(S(=O)(=O)N(CC(=O)NCCc2ccccc2)c2ccc(Cl)cc2)cc1`: inactive: 83%; `CC(=O)SCCC(=O)N1CCn2c3c(c4cc(C)ccc42)CCCC31` (configuration not stated): inactive: 92%; `CCN(Cc1ccccc1)C(=O)c1cc2sccc2n1Cc1ccccc1`: inactive: 67%.
Regarding `CCOc1ccc(C(=O)c2oc3ccccc3c2NC(=O)c2cc(=O)c3ccc(C)cc3o2)cc1`, the survival was inactive: 134%.
Consider `Fc1ccc(NCc2ccccc2-c2nnc(-c3ccccc3Cl)o2)cc1Cl`, for which the survival was inactive: 77%.
As for `CCc1ccc(-c2cc(C)no2)cc1S(=O)(=O)NCc1ccc(OC)cc1`, the survival was inactive: 94%.
For the compound `COc1ccccc1CC(=O)Nc1c[nH]c(=O)[nH]c1=O`, the survival is inactive: 76%.
As for `N#C/C(=C/c1ccccc1Cl)c1nc(-c2cc3ccccc3oc2=O)cs1`, the survival is inactive: 81%.
Regarding `O=C(NCc1ccccn1)c1cc2n(n1)C(C(F)(F)F)CC(c1ccco1)N2` (configuration not stated), the survival is inactive: 83%.
With `COc1cc(C)ccc1OCCSc1nc2ccc(NC(=O)c3ccccc3F)cc2s1`, the survival was inactive: 99%.
Next, `O=C(Cn1c(=O)n(CC2CCCO2)c(=O)c2ccccc21)Nc1ccc(F)cc1F` (configuration not stated): inactive: 92%; `COC(=O)c1cc(NC(=O)Cn2nc(-c3ccccc3)c3c(c2=O)CCCC3)cc(C(=O)OC)c1`: active: 24%; `O=C1SCCc2c1n(Cc1ccccc1)c1ccccc21`: inactive: 86%.
Take `O=C(/C=C/c1ccco1)N/C(=C\c1ccc2c(c1)OCO2)C(=O)N1CCCCCC1`: the survival was inactive: 110%.
Under `CCCCNC(=O)Cn1nc(N2CCN(c3ccccc3OC)CC2)ccc1=O` stands inactive: 89%; under `COc1ccc(Cl)cc1NC(=O)COc1cccc2c(=O)n(C)ccc12`, inactive: 96%.
As for `COC(=O)c1ccc(NC(=O)CN(C)S(=O)(=O)c2ccc3c(c2)CCCC(=O)N3)cc1`, the survival was inactive: 79%.
Next, `CC1=NN(c2ccc(N)cc2)C(=O)C1`: inactive: 107%; `COc1cccc(C(=O)N2CCc3cc(OC)c(OC)cc3C2COc2ccc3c(C)cc(=O)oc3c2)c1` (configuration not stated): inactive: 57%; `CCn1cc(S(=O)(=O)c2cc(C)cc(C)c2)c(=O)c2cc(F)c(N3CCN(c4ccccc4)CC3)cc21`: inactive: 79%.
For the compound `CCCCn1c(CNc2ccc(C)cc2)nnc1SCC(=O)OC`, the survival is inactive: 78%.
Under `Cc1cccc2cc(-c3nc(-c4cccs4)no3)c(=O)oc12` stands inactive: 91%; under `Cc1sc2ncn(CC(=O)N3CCN(c4cccc(Cl)c4)CC3)c(=O)c2c1S(=O)(=O)N1CCC(C)CC1`, inactive: 149%.
Consider `CCOc1ccc(C(c2c(O)cc(C)n(CCOC)c2=O)N2CCN(c3ccc(F)cc3)CC2)cc1` (configuration not stated), for which the survival is inactive: 78%.
Regarding `CCOC(=O)c1cc2sccc2n1CC(=O)NC(C)C`, the survival is inactive: 72%.
As to `CCOc1ccc(-n2c(=O)c3c(C)c(C)sc3n(Cc3ccc(C(C)(C)C)cc3)c2=O)cc1`, the survival was active: 52%.
For the compound `CC(=O)N1CCc2c(sc3c2c(=O)n(-c2cc(Cl)ccc2C)c(=O)n3C)C1`, the survival is inactive: 117%.
Turning to `CCN1C(=O)Cc2cc(S(=O)(=O)N3CCOCC3)ccc21`, the survival is inactive: 100%.
Take `CCN(CC)C(=O)Cn1c(=O)n(CCCCCC(=O)NCc2ccc(C)cc2)c(=O)c2sccc21`: the survival was inactive: 83%.
For the compound `CCN(CC)C(=O)c1sc2c(c1C)c(=O)n(Cc1ccccc1)c(=O)n2Cc1c(C)cc(C)cc1C`, the survival was inactive: 70%.
Regarding `O=C(NCC(c1ccco1)S(=O)(=O)c1cccs1)c1c(F)cccc1F` (configuration not stated), the survival is inactive: 102%.
Under `Cc1ccc2[nH]c(C)c(CCNC(=O)c3cc4cc(Br)ccc4oc3=O)c2c1` stands active: 37%.
With `Cc1cccc(NC(=O)Cn2c(=O)n(CC3CCC(C(=O)NCCc4ccccc4)CC3)c(=O)c3ccccc32)c1C` (configuration not stated), the survival is inactive: 80%.
As to `CCOC(=O)c1ccc(NC(=O)c2c(NCc3ccc(OC)c(OC)c3OC)sc3c2CCC(C)C3)cc1` (configuration not stated), the survival was inactive: 123%.
For the compound `O=C(NCC(c1cccnc1)N1CCc2ccccc21)c1cccc(F)c1` (configuration not stated), the survival was active: 44%.
Turning to `Cc1nn(-c2ccc(N3CCCC3)nn2)c(C)c1CCC(=O)N1CCN(c2ccc(F)cc2)CC1`, the survival was inactive: 120%.
In the case of `CCCCN(C(=O)CCn1c(=O)oc2ccccc21)c1ccccc1`, the survival was inactive: 79%.
